The source of these data is PubChem BioAssay AID1645882 (National Center for Advancing Translational Sciences (NCATS), 2021).

The campaign covered roughly 16,000 compounds. About 120 (0.75%) were called active. Another 4% or so got no clear call; they are omitted. Calls come from the whole dose curve; as a rule, active = well fitted inhibition curve with a large enough effect; inconclusive = small, poorly fitted or top-dose-only effect; inactive = no such curve, though single readings can be large or run the other way. This is one part of the list. Where a SMILES comes first, the peptide text is derived from it. [ ]: non-standard residue; d: D form. Sar = CNCC(=O)O

Sequence of UniProt O95398 (O95398 whole entry, looked up): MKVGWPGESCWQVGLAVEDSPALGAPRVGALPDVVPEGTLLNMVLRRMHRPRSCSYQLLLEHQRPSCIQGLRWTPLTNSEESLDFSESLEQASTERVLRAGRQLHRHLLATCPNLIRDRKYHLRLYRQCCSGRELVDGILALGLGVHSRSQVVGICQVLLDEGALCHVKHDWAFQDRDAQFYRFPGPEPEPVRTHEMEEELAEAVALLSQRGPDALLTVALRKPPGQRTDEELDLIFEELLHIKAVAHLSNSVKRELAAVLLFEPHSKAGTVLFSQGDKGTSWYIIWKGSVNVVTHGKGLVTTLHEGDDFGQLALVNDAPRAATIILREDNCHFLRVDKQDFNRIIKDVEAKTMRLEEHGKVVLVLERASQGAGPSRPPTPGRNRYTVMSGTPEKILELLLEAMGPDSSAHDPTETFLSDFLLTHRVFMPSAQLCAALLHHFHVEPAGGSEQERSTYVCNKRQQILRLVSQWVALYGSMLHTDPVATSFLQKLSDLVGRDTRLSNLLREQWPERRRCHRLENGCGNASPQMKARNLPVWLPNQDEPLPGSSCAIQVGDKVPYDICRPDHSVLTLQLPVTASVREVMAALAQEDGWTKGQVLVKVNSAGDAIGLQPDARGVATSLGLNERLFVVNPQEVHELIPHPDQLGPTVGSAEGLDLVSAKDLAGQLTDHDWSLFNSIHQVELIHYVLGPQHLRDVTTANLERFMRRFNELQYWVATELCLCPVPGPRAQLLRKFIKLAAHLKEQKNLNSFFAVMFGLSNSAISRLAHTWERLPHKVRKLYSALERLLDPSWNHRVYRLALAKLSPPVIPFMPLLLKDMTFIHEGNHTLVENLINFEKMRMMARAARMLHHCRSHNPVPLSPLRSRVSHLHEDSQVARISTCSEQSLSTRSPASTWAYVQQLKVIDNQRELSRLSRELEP

This experiment concerns the target Rap guanine nucleotide exchange factor 3 (Homo sapiens) (UniProt O95398). The experiment in a line: Validation qHTS for antagonist of cAMP-regulated guanine nucleotide exchange factor 3 (EPAC1).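 Note: plate controls were DMSO for no effect and ATA control for full effect; nearly all actives have a fitted effect of over 75% in size.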 Particulars: EPAC1 Rap1B-BODIPY-GDP exchange, fluorescence; series mostly up to 150 µM; activity change, negative = inhibition: at the top concentration. The method in brief:
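Nucleotide exchange followed as fluorescence loss when BODIPY-GDP leaves Rap1B (480 nm excitation, 540 nm emission), read at 5 min intervals over 30 min. Reaction: 100 nM EPAC1, 250 nM RAP1B-BODIPY-GDP, 50 uM GDP; ATA and DMSO define normalization.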
(In general: Quantitative high-throughput screening tests each substance at several concentrations.)
On to `COc1ccc(-c2nc3cnc(OCc4ccccc4)nc3n(CCC#N)c2=O)cc1`, for which the “activity change, negative = inhibition” value was inactive: 19%.
The figure for `COC(=O)[C@@H]1CCCN1C(=O)c1c(OC)cc(=O)n2c1CCN(Cc1ccc3nsnc3c1)CC2` is inactive: 11.9%; for `CCOC(=O)N1CCN(Cc2ccc3c(c2)CN(C(=O)c2cc(-c4ccccc4)no2)CCO3)CC1` it is inactive: -13.5%.
To `CC(=O)N1CCC2(CC1)CN(c1ccccn1)C2` belongs inactive: 4.69%.
To `CC(=O)N1CCC2(CCCN(Cc3cc(C(F)(F)F)cc(C(F)(F)F)c3)C2)CC1` belongs inactive: 14.3%; to `O=C1CCN(Cc2ccc(Br)cc2)CCN1[C@H](CO)Cc1ccccc1`, inactive: -0.993%; to `Cc1cc(=O)n(-c2ccccc2)n1C`, “inactive”.
For `Cc1csc[n+]1CC(=O)c1ccccc1`, the “activity change, negative = inhibition” value was inactive: -15.5%.
To `CN(C)c1cccc(C(=O)NCC2Cc3cccc(-c4cncnc4)c3O2)c1` (stereo not given) belongs inactive: 7.98%; to `Cc1nc2cc(NC(=O)[C@@H]3C[C@@H](Sc4ccccn4)CN3C3CCCCCC3)ccc2s1`, inactive: 5.2%.
To `CCCN(CCc1cccs1)[C@H]1CCc2c(O)cccc2C1` belongs inactive: -0.592%; to `COC(=O)[C@H]1[C@@H]2C[C@H]3c4[nH]c5ccccc5c4CCN3C[C@@H]2CC[C@@H]1O`, inactive: 2.47%; to `COc1ccc2[nH]cc(CCNc3nc(-c4cccc(C#N)c4)nc4ccccc34)c2c1`, inactive: -16.7%.
To `COc1ccc(SC[C@H](C)CN2CC[C@H](O)CCC2=O)cc1` belongs inactive: 9.89%; to `CC1CCc2c(N3CCC(O)CC3)c(F)cc3c(=O)c(C(=O)O)cn1c23` (stereo not given), inactive: 0.539%; to `Cn1cccc1C(=O)N1CCC2(CC1)CCN(c1ccccn1)CC2`, inactive: 14.4%.
Consider `CC(=O)c1ccc(F)c(-c2cc(C)cc3c2OC(CNC(=O)c2cnc4ccccn4c2=O)C3)c1` (stereo not given), for which the “activity change, negative = inhibition” value was inactive: -11.2%.
The figure for `CC1(C2CCN(Cc3c[nH]c4ccccc34)CC2)NC(=O)N(CCN2CCOCC2)C1=O` (stereo not given) is inactive: 19.3%.
To `CNCC(=O)NCC(=O)N[C@@H](Cc1ccccc1)C(=O)N[C@@H](CC(C)C)C(=O)O` (H-[Sar]GFL-OH) belongs inactive: 0.318% [at 15.3 µM]; to `CC(C)[C@@H]1CC[C@@H](C)C[C@@H]1P(=O)(c1ccccc1)c1ccccc1`, inactive: -11.1% [at 75.8 µM]; to `CC(C)C(N)C(=O)NC(Cc1c[nH]c2ccccc12)C(=O)O` (stereo not given), inactive: 18.5%.
To `CC1(C)CCC[C@@]2(C)C1CC[C@@](C)(O)[C@@H]2CC[C@@](C)(O)C1CO1` (stereo not given in full) belongs inactive: -17.4%; to `Cc1ccc(-c2ncc(Cl)cc2-c2ccc(S(C)(=O)=O)cc2)cn1`, inactive: 11.2%; to `O=c1c(O)c(-c2ccc(O)cc2)oc2ccc(O)cc12`, inactive: 2.45%.
In the case of `CN(C)c1ccc(/C=C/c2ccnc3c(Cl)cccc23)cc1`, the “activity change, negative = inhibition” value was inactive: -3.36%.
The figure for `CC1CCC(C(C)[C@H]2CCC3C4CC(=O)C5C[C@@H](O)CC[C@]5(C)C4CC[C@@]32C)=NC1` (stereo not given in full) is inactive: 2.85%.
To `NCC(=O)O` belongs inactive: 24.4%.
The figure for `Cc1c(CN2CCOc3c(cc(-c4ncc(C(F)(F)F)cc4Cl)cc3OCC3CCCO3)C2)cnn1C` (stereo not given) is inactive: 11.6%; for `COCC(=O)N1CCC[C@@]2(CCN(Cc3ccccc3)C2)C1` it is inactive: 13.8%; for `COc1ccc(-c2coc3cc(OC4OC(CO)C(O)C(O)C4O)cc(O)c3c2=O)cc1` (stereo not given) it is inactive: 15.4%.
With `COc1cc2c(cc1OC)[C@H](C)N(CC1C(=O)O[C@@H]3C[C@@]4(C)CCC[C@H](C)[C@@]45OC5[C@H]13)CC2` (stereo not given in full), the “activity change, negative = inhibition” value is inactive: -13.9%.
To `C[C@H]1CN(Cc2ccccc2)C(=O)[C@@H]1CC(=O)NCc1ccccc1` belongs inactive: 10.5%; to `O=C1CCC[C@@H]2Cc3nc4ccc(Cl)cc4cc3[C@@H]3CCN1[C@H]23`, inactive: 3.03%.
The figure for `O=c1cc(-c2cccc(O)c2)oc2cccc(O)c12` is inactive: 11.1%; for `COc1cccc(CN2CCC3(CC2)c2ccccc2[C@@H](NC(=O)c2ccccc2)[C@@H]3O)c1O` it is inactive: 7.85%; for `O=C(O)c1ccccc1Nc1ccccc1` it is “inactive”.
Regarding `Nc1ncnc(Nc2ccc(Cl)cc2)n1`, the “activity change, negative = inhibition” value was inactive: 25.4%.
The figure for `COc1c(O)cc2c(-c3ccccc3)cc(=O)oc2c1OC` is inactive: 2.42%.
The figure for `N=c1ccn2c(n1)O[C@@H]1[C@H](O)[C@H](CO)O[C@@H]12` is inactive: 9.24%.
For `COc1cccc(CNC(=O)c2c(OC)cc(=O)n3c2CCN(C(=O)c2ccc(C)cc2C)CC3)c1`, the “activity change, negative = inhibition” value is inactive: 2.41%.
The figure for `C[C@@H]1[C@H](c2ccccc2)OCCS(=O)(=O)N1Cc1ccccc1Br` is inactive: -15.5%; for `CC(=O)Nc1ccc(S[C@@H](CCN2CC[C@H](C(C)(C)C)CCC2=O)c2ccccc2)cc1` it is inactive: -13.6%.
The figure for `CSc1nccc(-c2cc(Cl)c3c(c2)CC(CNC(=O)c2nonc2C)O3)n1` (stereo not given) is inactive: 11.2%; for `CCc1nnc(NS(=O)(=O)c2ccc(N)cc2)s1` it is inactive: -3.15%.
As to `CCNc1ncc2nc(-c3cn(C)c4ccccc34)c(=O)n(C[C@H]3CCCO3)c2n1`, the “activity change, negative = inhibition” value is inactive: 12.1%.
For `O=c1cnc2cnc(Oc3cccc(Cl)c3)nc2n1C1CC1`, the “activity change, negative = inhibition” value was inactive: 6.23%.
`Cc1ccccc1C1(CC(=O)N2CCCC(C)C2)CC(=O)N(Cc2cccnc2)C1=O` (stereo not given): the “activity change, negative = inhibition” value is inactive: 8.32%.
On to `N#Cc1ccccc1-c1ccc2ncnc(N3CCNCC3)c2c1`, for which the “activity change, negative = inhibition” value is inactive: 1.58%.
The figure for `O=C(O)c1cccc(/C=C2/C[C@@H]3[C@@H](/C=C/[C@@H](O)C4CCCCC4)[C@H](O)C[C@@H]3O2)c1` is inactive: 9.6%.
The figure for `C=CC[C@H](N)C(=O)O` is inactive: -12.7% [at 75.8 µM]; for `CC(C)NC(=O)N1CCC2(CC1)CCN(C(=O)c1cnccn1)CC2` it is inactive: 1.66%.
To `Brc1ccc([C@H]2CN3CCSC3=N2)cc1` belongs inactive: -6.9% [at 75.8 µM].
As to `O=S(=O)(c1ccccc1)N1CCC2(CCN(Cc3ccccc3)CC2)CC1`, the “activity change, negative = inhibition” value is inactive: 18.9%.
To `Cc1ccc(S[C@@H](CCN2CC[C@H](C)CCC2=O)c2ccccc2)cc1` belongs inactive: -12.4%; to `COc1ccc(NC(=O)N2CC[C@@]3(CCCNC3)C2)cc1`, inactive: 26.1%.
The figure for `O=C(/C=C/c1ccc(OCc2ccccc2)cc1)c1cccs1` is inactive: 9.11%; for `COc1ccc(C(=O)NCCN2Cc3cc(C)ccc3OC(C)C2)c(OC)n1` (stereo not given) it is inactive: 6.47%.
The figure for `CC1NC(C(=O)O)Cc2c1[nH]c1ccccc21` (stereo not given) is inactive: 2.03%; for `CC(C)CC(NP(=O)(O)O[C@@H]1O[C@@H](C)[C@H](O)[C@@H](O)[C@H]1O)C(=O)NC(Cc1c[nH]c2ccccc12)C(=O)O` (stereo not given in full) it is inactive: 8.85% [at 75.8 µM].
For `Cc1cccc(CNc2ncncc2-c2ccccc2C)c1`, the “activity change, negative = inhibition” value is inactive: 2.69%.
Take `CC(C)C(NS(C)(=O)=O)c1nnc2n1CCN(Cc1ccnc3ccccc13)CC2` (stereo not given): the “activity change, negative = inhibition” value was inactive: 10.9%.
For the compound `CCCCCCCCCCCCCCCC(=O)OC(CC(=O)O)C[N+](C)(C)C` (stereo not given), the activity change, negative = inhibition entry was “inactive”.
To `CCCCCCCCCCCCCCCC(=O)NCCO` belongs “inactive”; to `COc1cc([C@@H]2c3cc4c(cc3C(O[C@@H]3O[C@@H]5COC(c6cccs6)O[C@H]5[C@H](O)[C@H]3O)C3COC(=O)[C@@H]32)OCO4)cc(OC)c1O` (stereo not given in full), inactive: -8.58%.
The figure for `Cc1cc(C(=O)Nc2ccccc2-c2nc(CNC(=O)c3ccc(F)cc3F)c(C)o2)c(C)o1` is inactive: 7.32%; for `CN(C)C(=O)c1ccc(-c2ccc3ncnc(Nc4ccccc4)c3c2)cc1` it is inactive: -0.569%; for `CCn1c(-c2ccccc2F)nc2cc(NC(C)=O)cc(C(=O)N(C)Cc3cn(C)nc3C)c21` it is inactive: -1.07%.
Take `O=C1CC(c2ccc(O[C@@H]3OC(CO)[C@@H](O)C(O)C3O)cc2)Oc2cc(O)ccc21` (stereo not given in full): the “activity change, negative = inhibition” value is inactive: 4.19%.
To `CN1CCN(C2=Nc3cc(Cl)ccc3Nc3ccccc32)CC1` belongs “inactive”; to `CC(C)(S)[C@@H](N)C(=O)O`, inactive: 20.4%; to `C=C1CC[C@@H]2O[C@@]2(C)CC[C@H]2[C@H]1CC2(C)C`, inactive: -11.4%.
Regarding `CC1=CC(=O)C2=C(C)C[C@H](OC(=O)Cc3ccccc3)C3[C@H](OC(=O)[C@H]3C)C12` (stereo not given in full), the “activity change, negative = inhibition” value was inactive: 5.33%.
To `CN(Cc1cccc2ncccc12)C(=O)c1cnn(-c2nccc(-c3ccccc3F)n2)c1C1CC1` belongs inactive: -13%; to `COc1ccc(Oc2ncc3nc(-c4ccc(F)cc4)c(=O)n(C[C@H]4CCCO4)c3n2)cc1`, inactive: -3.14%; to `COc1ccccc1-c1cc(NCc2cccnc2)ncn1`, inactive: 19.2%.
For `Cc1cccc(C(=O)O[C@H]2[C@H](Cc3ccccc3)NS(=O)(=O)[C@H]3CC4C=C[C@]23O4)c1`, the “activity change, negative = inhibition” value was inactive: 6.2%.
The figure for `Cc1cc(C(=O)NNCc2ccccc2)no1` is inactive: 0.128% [at 75.8 µM]; for `COc1ccc2c(c1)CC[C@@H]1[C@@H]2CC[C@]2(C)[C@@H](NCCCCCCN3C(=O)C=CC3=O)CC[C@@H]12` it is inactive: 4.59% [at 201 µM]; for `Cc1ccccc1-c1cc(Nc2ccccc2)ncn1` it is inactive: -4.33%.
The figure for `CC(C)c1c(C(=O)NCC2(N3CCOCC3)CCCC2)cnn1-c1nccc(-c2cccs2)n1` is inactive: 4.46%.
The figure for `COc1ccc(OC)c(/C=C/c2cc3ccccc3cn2)c1` is inactive: 3.32%; for `COC(=O)c1cccc(C(=O)NCc2nc(-c3ccccc3NC(C)=O)oc2C)c1` it is inactive: 6.06%.
Turning to `COc1ccc(-c2ccc(=N)n(CCCC(=O)O)n2)cc1`, the activity change, negative = inhibition result was “inactive”.
To `Cn1ccc(C(=O)NCC2CCC3(CCN(Cc4cc(F)cc(F)c4)CC3)O2)n1` (stereo not given) belongs inactive: 7.03%; to `CN(C)c1ncc2nc(-c3ccccc3)c(=O)n(Cc3cccs3)c2n1`, inactive: 20.9%; to `Cc1ccc(C(=O)NCCc2nnc3n2CCN(Cc2ccnc4ccccc24)CC3)c(C)c1`, inactive: 17.4%.
To `O=C(C[C@H]1C(=O)N(c2ccc(F)c(F)c2)C[C@@H]1Cc1ccccc1)Nc1ccccc1` belongs inactive: -0.362%; to `CC1(C)S[C@@H]2[C@H](NC(=O)C(C(=O)Oc3ccc4c(c3)CCC4)c3ccccc3)C(=O)N2[C@H]1C(=O)O` (stereo not given in full), inactive: 15.1%.
The entry for `CSc1ccc(C(=O)c2[nH]c(=O)[nH]c2C)cc1` is “inactive”; for `COc1ccccc1CNc1nc(-c2cccnc2)nc2ccccc12` it is inactive: -15.8%; for `S=C(Nc1ccccc1)Nc1nccs1` it is inactive: 4.33% [at 75.8 µM].
As for `Cc1c(C(=O)NCc2ccc3c(c2)OCO3)cnn1-c1ncc2c(n1)-c1ccccc1CC2`, the “activity change, negative = inhibition” value was inactive: -4.33%.
The figure for `Cc1ccnc2c(Cl)c(Cl)ccc12` is inactive: 8.33%; for `CCCC[C@H]1COCCS(=O)(=O)N1Cc1ccccc1F` it is inactive: -4.51%; for `COc1cc(C/C=C/c2ccccc2)c(OC)cc1O` it is inactive: 7.69%.
Consider `O=C1O[C@H](CO)[C@@H](O)[C@H](O)[C@H]1O`, for which the “activity change, negative = inhibition” value is inactive: 23.2%.
`COc1ccc2c(c1)-c1nc(-n3ncc(C(=O)NCc4cccc(C)n4)c3C3CC3)ncc1CC2`: the “activity change, negative = inhibition” value is inactive: 17.5%.
Consider `COc1ccc(-c2nc3cnc(N(C)C)nc3n(C3CC3)c2=O)cc1`, for which the “activity change, negative = inhibition” value was inactive: 4.93%.
The figure for `COCCN1CCN(C(=O)c2sc3ncnc(NCC4CCCO4)c3c2C)CC1` (stereo not given) is inactive: -4.02%.
To `Oc1cn2c(n1)Nc1ccc(Cl)c(Cl)c1C2` belongs “inactive”.
